Where “and” joins values, the source holds several entries; their conditions need not be identical. Identical values can stand only once. About 6,400 (1.6%) of roughly 410,000 compounds were called active. This list was built around the results that the source calls inconclusive (neither active nor inactive); the mix of calls is not that of the screen. Calls come from the whole dose curve; as a rule, active = well fitted inhibition curve with a large enough effect; inconclusive = small, poorly fitted or top-dose-only effect; inactive = no such curve, though single readings can be large or run the other way. Potencies beside an inconclusive call are fits to weak or partial responses and may not hold up.
biological target: Glucagon-like peptide 1 receptor (Homo sapiens) (UniProt P43220); test: qHTS of GLP-1 Receptor Inverse Agonists (Inhibition Mode); settings: HEK293 GLP-1R CRE-luciferase, luminescence, 24 h, GLP-1R form is constitutively active; activity change, negative = inhibition: at 38.3 µM (top of the series) unless noted; note: nearly all actives have a fitted effect of over 55% in size
Chain of UniProt P43220 (P43220 whole entry, looked up): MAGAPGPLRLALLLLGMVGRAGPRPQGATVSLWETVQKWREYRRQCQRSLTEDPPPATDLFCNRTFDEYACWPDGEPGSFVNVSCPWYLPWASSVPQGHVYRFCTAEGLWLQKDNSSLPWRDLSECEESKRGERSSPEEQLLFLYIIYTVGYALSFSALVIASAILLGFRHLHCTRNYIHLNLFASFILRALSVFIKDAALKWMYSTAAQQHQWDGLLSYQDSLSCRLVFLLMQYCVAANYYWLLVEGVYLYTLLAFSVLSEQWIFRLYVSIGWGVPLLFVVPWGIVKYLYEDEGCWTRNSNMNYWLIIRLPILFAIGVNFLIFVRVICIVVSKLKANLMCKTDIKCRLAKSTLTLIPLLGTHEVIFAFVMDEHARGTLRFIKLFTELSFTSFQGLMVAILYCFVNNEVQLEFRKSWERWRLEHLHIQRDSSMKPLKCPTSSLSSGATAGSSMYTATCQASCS
In short: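 Readout was luciferase luminescence, measured 12 min after detection reagent at room temperature. Beforehand, GLP-1R reporter HEK293 cells had sat 12 h, then received compounds for 24 hr at 37 deg C.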
% is set by controls: 0 for no effect and ±100 for the full control effect; potency is the fitted concentration of half-maximal effect; tags give direction and shape of the fitted curve.

SMILES | activity change, negative = inhibition | Potency
COc1ccc(/C=C/c2nc(C#N)c(NC3CCCCC3)o2)cc1OC | inactive: -4.02% | –
CC(Nc1nc(-c2ccc3c(c2)NC(=O)CO3)cs1)c1ccccc1 (stereo not drawn) | – | inconclusive: 28.2 µM [inhibitor, single point]
O=C(Nc1ccccc1Cl)NN1CCCCCC1 | – | active: 2 µM
O=C1NC(c2ccc(Cl)c([N+](=O)[O-])c2)Nc2ccccc21 (stereo not drawn) | – | inconclusive: 28.2 µM [inhibitor, single point]
CCCCn1nnnc1C(c1cc2ccccc2o1)N(C)CCc1ccccc1 (stereo not drawn) | – | inconclusive: 10 µM [inhibitor, partial curve, poor fit]
COc1cc(-c2nnc(SCC(=O)/C(C#N)=C(\C)N)o2)cc(OC)c1OC | inactive: 8.96% | –
COC(=O)c1ccc(NC(=O)Cc2coc3cc(C)ccc23)cc1 | – | inconclusive: 10 µM [inhibitor, single point]
C=CCn1c(O)c(N=NC(=O)CNC(=O)/C=C/c2ccc(OC)cc2)c2ccccc21 | – | inconclusive: 11.2 µM [inhibitor, partial curve, poor fit]
CCOC(=O)C1CCN(S(=O)(=O)c2ccc(Br)c(OCC)c2)CC1 | – | inconclusive: 12.6 µM [inhibitor, single point]
Cc1cc(NC(=O)CS(=O)(=O)c2cn(Cc3ccccc3Cl)c3ccccc23)no1 | – | inconclusive: 28.2 µM [inhibitor, single point]
Cc1ccc(C(=O)C(C)OC(=O)C2CCN(c3ccc(C(F)(F)F)cn3)CC2)cc1C (stereo not drawn) | – | inconclusive: 10 µM [inhibitor, single point]
COC(OC)C12c3ccccc3C(c3ccccc31)C1C(=O)N(c3cccnc3)C(=O)C12 (stereo not drawn) | – | inconclusive: 15.8 µM [inhibitor, partial curve, poor fit]
Cc1nn(C(C)C(=O)NCCCc2ccccc2)c(=O)c2cc3occc3n12 (stereo not drawn) | – | inconclusive: 10 µM [inhibitor, single point]
Cc1nc2ccccc2n1CSc1ccccc1 | – | inconclusive: 12.6 µM [inhibitor, partial curve, poor fit]
CC(C)COc1cccc(C(=O)NC(=S)Nc2cccc(NC(=O)c3ccccc3Cl)c2)c1 | inactive: 4.74% | –
COc1cc(CNCCNC(=O)c2nonc2N)ccc1OCc1ccc(Cl)nc1 | – | inconclusive: 8.91 µM [inhibitor, partial curve, poor fit]
CC1CCN(c2ccc(NC(=S)NC(=O)c3ccco3)cc2)CC1 | – | inconclusive: 5.62 µM [inhibitor, full curve, poor fit]
O=C1C=C(c2ccc(F)c(Cl)c2)C[C@@H](c2ccc(F)cc2)C1 | – | inconclusive: 11.2 µM [inhibitor, single point]
C=CCC1(C#N)C(=S)NC(C)=C(C(=O)OCC)C1c1ccccc1 (stereo not drawn) | – | inconclusive: 28.2 µM [inhibitor, single point]
CC1CCN(C(=O)COc2cccc3c2CCN(Cc2ccccc2)C3=O)CC1 | – | inconclusive: 28.2 µM [inhibitor, single point]
CCC(=O)Nc1ccc(Cl)c(NC(=S)NC(=O)c2ccco2)c1 | inactive: 45.4% | –

SMILES | activity change, negative = inhibition | Potency
Cc1coc2c(C)c3oc(=O)c(CC(=O)N4CCCCC4)c(C)c3cc12 | inactive: 1.95% | –
O=C(CCn1c(=O)c2cccn2c2ccc(F)cc21)NCCc1ccccc1Cl | – | inconclusive: 14.1 µM [inhibitor, single point]
CCNC(=S)NNC(=O)C1CCCCC1 | inactive: -20.7% | –
CCCOc1ccc(Nc2nc(SC)ncc2C(=O)OCC)cc1 | inactive: 16.7% | –
S=C(c1ccc(Cl)cc1)N1CCN(Cc2ccccc2)CC1 | – | inconclusive: 3.55 µM [inhibitor, partial curve]
CCN(c1ccccc1)S(=O)(=O)c1cc(NC(=O)COC(=O)C2CC2)ccc1Cl | – | inconclusive: 28.2 µM [inhibitor, partial curve, poor fit]
C[C@@H]1CN([C@@H](C)CO)C(=O)c2cc(NC(=O)C3CCCCC3)ccc2O[C@@H](C)CCCCO[C@H]1CN(C)S(=O)(=O)c1ccc(Cl)cc1 | – | inconclusive: 6.31 µM [inhibitor, partial curve, poor fit]
CC(=O)N[C@@H](Cc1c[nH]c2ccccc12)C(=O)OCc1cc(C(F)(F)F)cc(C(F)(F)F)c1 | – | inconclusive: 28.2 µM [inhibitor, single point]
COc1ccc(CN2COc3ccc4c(C)cc(=O)oc4c3C2)cc1 | inactive: 9.22% | –
COc1cc(C(Nc2ccc3c(c2)OCO3)C(=O)NC2CCCCC2)cc(OC)c1OC (stereo not drawn) | – | inconclusive: 4.47 µM [inhibitor, partial curve]
Cc1ccccc1CN(C)CC(=O)Nc1cccc(S(=O)(=O)N(C)c2ccccc2)c1 | – | inconclusive: 10 µM [inhibitor, partial curve, poor fit]
O=C(NN=C1CCCC1)c1cc(-c2ccc(F)cc2)nc2ccccc12 | – | inconclusive: 31.6 µM [inhibitor, single point]
CCCCCCNC(=O)c1cccc(-c2ccc(C)c3ccccc23)n1 | – | active: 11.2 µM
CC(C)CCNc1ncnc2c1nnn2Cc1ccccc1Cl | inactive: 15% | –
CCCCC(=O)Nc1ccc(N2CCN(S(C)(=O)=O)CC2)cc1 | – | inconclusive: 10 µM [inhibitor, single point]
O=C(COc1ccccc1[N+](=O)[O-])NNC(=O)Nc1cccc2ccccc12 | – | inconclusive: 7.08 µM [inhibitor, partial curve, poor fit]
C=C(C)CC1(NC(C)c2ccccc2)CCCCC1 (stereo not drawn) | – | inconclusive: 31.6 µM [inhibitor, single point]
Cc1cccc(C)c1NC(=O)CN1CCN(c2ccc(C(F)(F)F)cn2)CC1 | inactive: -5.69% | –
COC(=O)C1=C(C)N(Cc2ccco2)C(=O)N[C@H]1c1cccc(C(F)(F)F)c1 | – | inconclusive: 11.2 µM [inhibitor, partial curve, poor fit]
CCOC(=O)CC1CCCCN1Cc1nc(-c2ccc(F)c(OC)c2)oc1C (stereo not drawn) | – | inconclusive: 12.6 µM [inhibitor, single point]
O=C(NCC1CC1)c1ccc2c3n(nc2c1)-c1ccccc1CO3 | – | inconclusive: 7.94 µM [inhibitor, single point]

SMILES | activity change, negative = inhibition | Potency
Cc1cc(S(=O)(=O)Nc2ccccc2C)ccc1F | – | inconclusive: 10 µM [inhibitor, single point]
Cc1ccc2c(c1)c1c3n2CCNC3CCC1 (stereo not drawn) | – | inconclusive: 7.94 µM [inhibitor, partial curve, poor fit] and inconclusive: 11.2 µM [inhibitor, partial curve, poor fit]
CN(CC(=O)Nc1ccccc1Cl)C(=O)CCSc1ccc(F)cc1 | – | inconclusive: 28.2 µM [inhibitor, single point]
CC1CCN(CC(=O)Nc2cccc(Cl)c2)CC1 | – | inconclusive: 8.91 µM [inhibitor, partial curve, poor fit]
Cc1ccc(S(=O)(=O)Nc2cc(C(=O)Nc3cc(C)cc(C)c3)ccc2Cl)cc1 | – | inconclusive: 10 µM [inhibitor, partial curve, poor fit]
COc1ccc(CNC(=O)c2cccc3c(-c4cccc(C(N)=O)c4)coc23)cc1OC | – | inconclusive: 12.6 µM [inhibitor, partial curve, poor fit]
CS(=O)(=O)N1CCN(c2ccc(NC(=S)NC(=O)c3cccs3)cc2)CC1 | inactive: 4.22% | –
CCOc1ccc(-c2ccc(NS(=O)(=O)c3cc(C)c(C)cc3C)cc2)nn1 | – | inconclusive: 28.2 µM [inhibitor, single point]
CCOC(=O)c1c(-c2ccccc2)csc1/N=C/C1C(=O)CCCC1=O | – | inconclusive: 20 µM [inhibitor, single point]
COc1cccc(C(=O)OC(C)C(=O)NCC2CCCCC2)c1 (stereo not drawn) | – | inconclusive: 11.2 µM [inhibitor, single point]
O=C(NCc1ccccc1Cl)c1ccc(S(=O)(=O)N2CCCC2)cc1 | – | inconclusive: 12.6 µM [inhibitor, partial curve]
O=C(CN1CCCN(Cc2ccccc2Cl)S1(=O)=O)Nc1ccc2c(c1)OCCO2 | – | inconclusive: 8.91 µM [inhibitor, single point]
O=C(NCCCn1ncc2ccccc21)c1cc(COc2c(F)cccc2F)on1 | – | inconclusive: 10 µM [inhibitor, partial curve, poor fit]
CCCCn1nnnc1C(c1cc2ccccc2o1)N(C)Cc1ccc(Cl)c(Cl)c1 (stereo not drawn) | – | inconclusive: 12.6 µM [inhibitor, single point]
CCOC(=O)c1cc(-c2ccc(F)cc2)n(CC(=O)NC2CCCCC2)c1C | inactive: 14.4% | –
COc1ccc(C(c2nnnn2Cc2ccccc2)N2CCN(c3nc4ccccc4s3)CC2)cc1OC (stereo not drawn) | – | inconclusive: 14.1 µM [inhibitor, single point]
O=C(Cc1ccccc1F)Nc1ccc(SC(F)F)cc1 | – | inconclusive: 28.2 µM [inhibitor, single point]
Cc1sc(NC(=O)C2C3CCC(C3)C2C(=O)O)c(C(N)=O)c1-c1ccc(C(C)(C)C)cc1 (stereo not drawn) | – | inconclusive: 12.6 µM [inhibitor, single point]
CCOC(=O)[C@]12CCCC=C1N(Cc1ccc(Cl)cc1Cl)C(=O)[C@H](CC(=O)N1CCN(C(=O)c3ccco3)CC1)C2 | – | inconclusive: 28.2 µM [inhibitor, single point]
O=C(Nc1nccs1)c1cc([N+](=O)[O-])ccc1Cl | – | inconclusive: 11.2 µM [inhibitor, partial curve, poor fit]
O=c1oc2ccccc2n1CCn1c2ccccc2c2nc3ccccc3nc21 | inactive: 2.21% | –

— PubChem BioAssay AID624417 (National Center for Advancing Translational Sciences (NCATS), 2012)
